The assay concerns the target GTPase KRas (Homo sapiens) (UniProt P01116). The assay can be described thus: Covalent labelling of cysteine mutants by fragments, read by mass spectrometry (AID 2202238). The arrangement: protein at 5 µM with 500 µM competing thiol for 1.5 h. The conditions noted are these: KRAS G12D cysteine mutants, disulfide tethering, MALDI-TOF labeling, stronger effect = higher value, fragment at 500 µM.

Where [1] appears, read: measured here: G60C mutant labeling.
The mark [2] stands for this setting: measured here: G75C mutant labeling.
The mark [3] stands for this setting: measured here: H94C mutant labeling.
[4] abbreviates: measured here: I36C mutant labeling.
Setting [5] is: measured here: L120C mutant labeling.
The mark [6] stands for this setting: measured here: M67C mutant labeling.
The mark [7] stands for this setting: measured here: M72C mutant labeling.
Setting [8] is: measured here: N26C mutant labeling.
The mark [9] stands for this setting: measured here: N86C mutant labeling.
[10] abbreviates: measured here: P121C mutant labeling.
[11] abbreviates: measured here: S122C mutant labeling.
[12] abbreviates: measured here: S136C mutant labeling.

The other results are listed elsewhere or left out. Shown are side measurements of this screen, not its main read-out; they come without a call.

Sequence of UniProt P01116 (P01116 whole entry, looked up, the tested form may be a part): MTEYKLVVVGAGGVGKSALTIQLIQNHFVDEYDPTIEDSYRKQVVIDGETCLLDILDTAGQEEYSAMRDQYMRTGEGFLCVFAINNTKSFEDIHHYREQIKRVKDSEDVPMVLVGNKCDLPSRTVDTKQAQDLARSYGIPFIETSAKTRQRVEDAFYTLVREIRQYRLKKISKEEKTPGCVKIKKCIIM

On to `Cc1occ(C(F)(F)F)c1CC(=O)NCCS`, for which the percent labeling runs as follows: under setting [1], 31.2%; under setting [2], 7.3%; under setting [3], 19.1%; under setting [4], 10.5%; under setting [5], 24.9%; under setting [6], 11.6%. The percent labeling runs as follows: under setting [7], 12.6%; under setting [8], 22.5%; under setting [9], 18.3%; under setting [10], 19.9%; under setting [11], 18.3%; under setting [12], 24.9%.
With `O=C1CCCCC2(C(=O)NCCS)CCCN12` (stereo not given), the percent labeling runs as follows: under setting [1], 23.6%; under setting [2], 8.1%; under setting [3], 26.5%; under setting [4], 19.1%; under setting [5], 20.5%; under setting [6], 27.6%. This compound also displayed a percent labeling under setting [7] of 10.3%; a percent labeling under setting [8] of 30.6%; a percent labeling under setting [9] of 20.9%; a percent labeling under setting [10] of 27.9%; a percent labeling under setting [11] of 29.5%; a percent labeling under setting [12] of 34.7%.
Turning to `CN(Cc1cnn(-c2cccc(Cl)c2)c1)C(=O)CCS`, the percent labeling is, setting by setting: under setting [2], 15%; under setting [3], 34.4%; under setting [4], 23.4%; under setting [5], 17.8%; under setting [6], 26.2%; under setting [7], 36%. For the same compound, the percent labeling worked out at 21.6% under setting [9], 41.5% under setting [10], 17% under setting [11] and 33% under setting [12].
Regarding `Cc1cc(CC2CCCC2NC(=O)CCS)n(C)n1` (stereo not given), the percent labeling runs as follows: under setting [2], 14.7%; under setting [3], 37.4%; under setting [4], 41%; under setting [5], 30%; under setting [6], 44.1%; under setting [7], 19.7%. Also, the percent labeling runs as follows: under setting [9], 22.4%; under setting [10], 38.8%; under setting [11], 36.1%; under setting [12], 55.5%.
Turning to `O=C(NCCS)c1cc(Br)c2occc2c1`, the percent labeling is, setting by setting: under setting [1], 43.4%; under setting [2], 19.9%; under setting [3], 27.6%; under setting [4], 11.8%; under setting [5], 15.5%; under setting [6], 11.9%. The percent labeling is, setting by setting: under setting [7], 36.6%; under setting [8], 32.7%; under setting [9], 12.5%; under setting [10], 16.5%; under setting [11], 11.5%; under setting [12], 22%.
Consider `O=C(NCCS)c1ncsc1C(F)(F)F`, for which the percent labeling runs as follows: under setting [1], 46.3%; under setting [2], 27.3%; under setting [3], 60.9%; under setting [4], 21.9%; under setting [5], 45.1%; under setting [6], 30.3%. In addition, the percent labeling turned out to be 47.9% under setting [7]; 44.3% under setting [8]; 34.8% under setting [9]; 34.8% under setting [10]; 36.1% under setting [11]; 42.7% under setting [12].
Consider `COc1ccc(Cl)cc1C(=O)N1CCC(C(=O)NCCS)CC1`, for which the percent labeling by setting is: under setting [1], 31.4%; under setting [2], 13%; under setting [3], 32.7%; under setting [4], 27.1%; under setting [5], 28.7%; under setting [6], 46.2%. This compound also gave a percent labeling under setting [7] of 25.5%; a percent labeling under setting [8] of 40.2%; a percent labeling under setting [9] of 17%; a percent labeling under setting [10] of 26.2%; a percent labeling under setting [11] of 34.4%; a percent labeling under setting [12] of 48.1%.
For the compound `Cc1ccc(-c2nc(C(=O)NCCS)cs2)o1`, the percent labeling is, setting by setting: under setting [1], 20.9%; under setting [2], 20.1%; under setting [3], 19.9%; under setting [4], 7.8%; under setting [5], 19.8%; under setting [6], 9.4%. Further, the percent labeling came out at 26% under setting [7]; 23% under setting [8]; 10.7% under setting [9]; 11% under setting [10]; 10.9% under setting [11]; 18.2% under setting [12].
Take `Cc1ccc(Br)c2[nH]c(C(=O)NCCS)cc12`: the percent labeling is, setting by setting: under setting [1], 35.3%; under setting [2], 14.1%; under setting [3], 24.9%; under setting [4], 10.5%; under setting [5], 20%; under setting [6], 10.4%. Further, the percent labeling by setting is: under setting [7], 22.3%; under setting [8], 22.2%; under setting [9], 11.9%; under setting [10], 18.1%; under setting [11], 7.5%; under setting [12], 12.1%.
As for `O=C(NCCS)c1c[nH]c2ncc(Br)cc12`, the percent labeling is, setting by setting: under setting [1], 35.1%; under setting [2], 29.5%; under setting [3], 27.1%; under setting [4], 21.9%; under setting [5], 26.6%; under setting [6], 23.2%. Besides, the percent labeling by setting is: under setting [7], 49%; under setting [8], 43.8%; under setting [9], 17.1%; under setting [10], 19.4%; under setting [11], 15.3%; under setting [12], 38.4%.
On to `O=C(CCc1ncc(-c2ccc(F)cc2)o1)NCCS`, for which the percent labeling came out at 31.4% under setting [1]; 10.3% under setting [2]; 38.8% under setting [3]; 15.4% under setting [4]; 20.8% under setting [5]; 26.3% under setting [6]. Also, the percent labeling amounted to 24.7% under setting [7]; 29.8% under setting [8]; 15.5% under setting [9]; 18.7% under setting [10]; 13.7% under setting [11]; 28% under setting [12].
`COc1cc(CN(C(=O)CCS)C2CC2)ccc1O` displayed a percent labeling under setting [2] of 14.4%; a percent labeling under setting [3] of 43.7%; a percent labeling under setting [4] of 39.9%; a percent labeling under setting [5] of 38.8%; a percent labeling under setting [6] of 51.1%; a percent labeling under setting [7] of 43.1%. The compound further came in with a percent labeling under setting [9] of 23.1%, a percent labeling under setting [10] of 35.2%, a percent labeling under setting [11] of 39.9% and a percent labeling under setting [12] of 67.4%.
Compound `CC1(N2CCCC2)CCC(NC(=O)CCS)CC1` (stereo not given) came in with a percent labeling under setting [2] of 15.8%; a percent labeling under setting [3] of 40.4%; a percent labeling under setting [4] of 55.6%; a percent labeling under setting [5] of 30.9%; a percent labeling under setting [6] of 48.5%; a percent labeling under setting [7] of 21.5%. Also, the percent labeling is, setting by setting: under setting [9], 24.1%; under setting [10], 37.4%; under setting [11], 34.2%; under setting [12], 56.3%.
On to `O=C(NCCS)c1cccc(NC(=O)C2Cc3ccccc3O2)c1` (stereo not given), for which the percent labeling reads like this: under setting [1], 11.8%; under setting [2], 8.8%; under setting [3], 12.2%; under setting [4], 7.2%; under setting [5], 9.3%; under setting [6], 9.5%. The compound also yielded a percent labeling under setting [7] of 16.3%; a percent labeling under setting [8] of 17%; a percent labeling under setting [9] of 6.6%; a percent labeling under setting [10] of 7.6%; a percent labeling under setting [11] of 5.3%; a percent labeling under setting [12] of 12.8%.
